Reference: the supplement of paper PMC9446081
Among all 39,000 compounds or so, about 220 (0.56%) showed activity. The list shows a part of the results.

test system: Escherichia coli K-12 BW25113; assay: relative growth (OD600 normalised to plate interquartile mean) (fraction); higher = less growth inhibition, active = 0.2 or less; conditions: 50 µM; LB; incubation time: overnight (16-24 h)
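Also: static incubation at 37 °C against the wild-type strain, values averaged over two biological replicates.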

Compound | relative growth
C[C@@H]1CN([C@H](C)CO)C(=O)c2cc(NS(C)(=O)=O)ccc2O[C@@H](C)CCCCO[C@@H]1CN(C)S(=O)(=O)c1cn(C)cn1 | inactive: 1.01
O=C(NN=Cc1ccc([N+](=O)[O-])o1)c1ccc(O)cc1 | inactive: 0.973
Cc1ccc(S(=O)(=O)N(C)C[C@@H]2Oc3c(NS(=O)(=O)c4ccc(F)cc4)cccc3C(=O)N([C@@H](C)CO)C[C@H]2C)cc1 | inactive: 1
COc1ccc(S(=O)(=O)Nc2ccc3c(c2)C(=O)N([C@@H](C)CO)C[C@@H](C)[C@H](CN(C)Cc2ccc(C(F)(F)F)cc2)OCCCC[C@H](C)O3)cc1 | inactive: 1.03
C[C@@H]1CN([C@@H](C)CO)C(=O)c2cc(NC(=O)Nc3ccc(C(F)(F)F)cc3)ccc2O[C@H]1CN(C)C(=O)Nc1ccc(F)cc1 | inactive: 0.999
Cc1ccc(S(=O)(=O)Nc2cccc3c2O[C@@H](CN(C)S(C)(=O)=O)[C@@H](C)CN([C@@H](C)CO)C3=O)cc1 | inactive: 0.984
C[C@@H]1CCCCO[C@H](CN(C)C(=O)Nc2ccccc2)[C@H](C)CN([C@@H](C)CO)C(=O)c2cc(NS(=O)(=O)c3ccc(Cl)cc3)ccc2O1 | inactive: 1.03
COc1ccc(CCNC(=O)[C@@]2(Sc3ccc(C)cc3)CC(=O)N(C3CCCCC3)[C@@H]2c2ccc(CO)cc2I)cc1 | inactive: 1.02
O=C(C[C@@H]1CC[C@@H]2NC[C@H](O)COC[C@H]2O1)NCCN1CCCC1 | inactive: 0.993
C[C@H](CO)N1C[C@H](C)[C@@H](CN(C)Cc2ccc(-c3ccccc3)cc2)Oc2ccc(NC(=O)Nc3cccc4ccccc34)cc2CC1=O | inactive: 0.997
COc1ccc(CN(C)C[C@@H]2OCCCC[C@H](C)Oc3ccc(NC(=O)Nc4ccc(F)cc4)cc3C(=O)N([C@H](C)CO)C[C@@H]2C)cc1 | inactive: 0.98
O=C(C[C@H]1CC[C@H]2[C@@H](COC[C@@H](O)CN2Cc2cccc(C(F)(F)F)c2)O1)NCCc1ccncc1 | inactive: 0.999
C[C@H]1CCCCO[C@H](CN(C)Cc2ccc(C(=O)O)cc2)[C@@H](C)CN([C@@H](C)CO)C(=O)c2cc(NC(=O)Nc3ccc(F)cc3)ccc2O1 | inactive: 1.02
CC(C)[C@@H](CO)N1C(=O)[C@]2(C)[C@H]3C(=O)OCCC/C=C\[C@H]3O[C@]23C=CCN(c2ccc(Cl)cc2)C(=O)[C@@H]13 | inactive: 0.987
C[C@@H]1CN([C@@H](C)CO)C(=O)c2cc(C#CC3(O)CCCC3)cnc2O[C@@H]1CN(C)S(C)(=O)=O | inactive: 1
Cn1cnc(S(=O)(=O)N2C[C@@H](O)COC[C@H]3O[C@@H](CC(=O)NC4CCCC4)CC[C@@H]32)c1 | inactive: 1.01
